Measured values as given in article PMC4336329 (PLoS ONE, 2015).
The campaign covered roughly 310,000 compounds. About 2,200 (0.71%) showed an effect of 50% or more. Effects have a minus sign here. The list shows a part of the results.

molecular target: human ether-à-go-go-related gene (hERG) potassium channel (human, UniProt Q12809); assay: primary screen, population patch clamp on CHO cells stably expressing hERG
Sequence (Q12809 whole entry, looked up): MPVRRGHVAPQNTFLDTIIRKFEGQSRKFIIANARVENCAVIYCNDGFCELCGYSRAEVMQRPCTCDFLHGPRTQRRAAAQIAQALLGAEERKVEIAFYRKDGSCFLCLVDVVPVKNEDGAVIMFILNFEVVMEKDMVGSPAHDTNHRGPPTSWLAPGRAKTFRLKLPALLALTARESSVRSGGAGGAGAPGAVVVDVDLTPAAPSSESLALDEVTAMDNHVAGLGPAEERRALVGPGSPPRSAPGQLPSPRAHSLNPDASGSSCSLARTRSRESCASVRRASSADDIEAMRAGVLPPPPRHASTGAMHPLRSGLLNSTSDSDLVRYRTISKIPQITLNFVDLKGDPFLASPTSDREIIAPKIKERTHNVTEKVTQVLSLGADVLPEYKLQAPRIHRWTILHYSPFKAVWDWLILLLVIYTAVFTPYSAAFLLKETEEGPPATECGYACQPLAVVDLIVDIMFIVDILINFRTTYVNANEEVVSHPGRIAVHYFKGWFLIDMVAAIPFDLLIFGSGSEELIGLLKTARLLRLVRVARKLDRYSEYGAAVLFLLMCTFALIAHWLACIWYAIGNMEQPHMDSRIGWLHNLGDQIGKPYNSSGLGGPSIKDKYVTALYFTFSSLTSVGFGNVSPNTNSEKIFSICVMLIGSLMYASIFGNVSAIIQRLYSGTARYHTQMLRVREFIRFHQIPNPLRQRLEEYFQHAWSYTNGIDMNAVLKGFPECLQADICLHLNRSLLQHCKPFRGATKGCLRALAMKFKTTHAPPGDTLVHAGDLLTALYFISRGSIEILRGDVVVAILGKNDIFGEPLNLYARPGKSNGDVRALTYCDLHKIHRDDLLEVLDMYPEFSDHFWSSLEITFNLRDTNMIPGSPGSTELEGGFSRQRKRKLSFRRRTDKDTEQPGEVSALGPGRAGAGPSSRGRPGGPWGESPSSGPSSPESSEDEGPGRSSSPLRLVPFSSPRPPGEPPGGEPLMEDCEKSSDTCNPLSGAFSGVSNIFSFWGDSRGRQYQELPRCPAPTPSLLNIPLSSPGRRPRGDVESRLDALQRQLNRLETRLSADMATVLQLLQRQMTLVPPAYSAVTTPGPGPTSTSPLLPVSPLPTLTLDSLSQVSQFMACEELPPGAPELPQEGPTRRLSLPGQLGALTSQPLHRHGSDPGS

In order of falling “hERG current change (%, negative = inhibition) at 1uM” value:
1. CCCc1nc2ccccc2c(=O)n1-c1ccc(O)cc1  19%
2. CCOC(=O)C1CCN(C(=O)Cn2cccc2C(=O)c2ccccc2)CC1  18.7%
3. CCc1ccc2nc(N3C(=O)c4oc5ccccc5c(=O)c4C3c3ccc(OC)c(OC)c3)sc2c1 (centres unmarked)  18%
4. CN1CCN(C2=C(Cl)C(=O)N(CCc3ccccc3)C2=O)CC1  17.7%
5. CCOC(=O)c1c(C)n(CCNC(C)=O)c2ccc(O)cc12  15.9%
6. CN(Cc1n[nH]c(=S)n1C)S(=O)(=O)c1ccccc1  15.7%
7. CCN(CC)S(=O)(=O)c1nnc(NC(=O)c2ccco2)s1  15%
8. CCOc1ccc(N(C(=O)c2snc(C(N)=O)c2N)C(C)C(=O)NC2CCCCC2)cc1 (centres unmarked)  12.5%
9. Cc1nnc(NC(=O)CCC(=O)N2CCC(C)CC2)s1  12.2%
10. Cc1ccccc1-c1nnc(-c2ccc(Cl)cc2)o1  12%
11. Cc1nc2ccccc2n1C(C)c1ccccc1 (centres unmarked)  11.9%
12. COc1cccc(-n2nc(-c3ccnn3-c3ccc(C)cc3)c(=O)n(C)c2=O)c1  11%
13. O=C1C2C3C=CC(C3)C2C(=O)N1CCN1CCN(S(=O)(=O)/C=C/c2ccccc2)CC1 (centres unmarked)  11%
14. C1CN(CC2CCN(c3nc4nonc4nc3N3CCSCC3)CC2)CCO1  10.8%
15. Cn1nnnc1SCC(=O)NC1CCCC1  10.5%
16. COc1cc2c(cc1OC)CN(C(=O)CCN1C(=O)C3CCCCC3C1=O)CC2 (centres unmarked)  10.4%
17. Cc1ccc(-c2nn(-c3ccccc3)cc2CSC(=N)N)cc1.Cl  10.3%
18. CC(=O)c1cc2c(cc1NC(=O)CSc1nc3ccccc3o1)OCO2  10.3%
19. COc1ccc(NS(=O)(=O)c2cccc3nsnc23)cc1OC  9.49%
20. COc1ccc(O)c(/C=N/NC(=O)CCC(=O)Nc2ccc(C)cc2)c1  9.41%
21. CC(C)CCOc1ccc(/C=N/N2C(=O)CSC2=S)cc1  9.04%
22. COc1ccc(C(C)=O)cc1COC(=O)CCNS(=O)(=O)c1ccc(C)c(C)c1  8.87%
23. CCOc1ccccc1NC(=O)COC(=O)C1CC1  8.86%
24. CC(=O)N(Cc1ccc2c(c1)OCO2)C1CC(=O)N(CCc2ccccc2)C1=O (centres unmarked)  8.14%
25. CC(=O)Nc1nc(SCC(=O)NCc2ccc(F)cc2)[nH]c(=O)c1NC(=O)c1cccs1  7.11%
26. Cc1ccc(NC(=O)C(NS(=O)(=O)c2cccc3nsnc23)C(C)C)nc1 (centres unmarked)  6.99%
27. COCCn1cnc2c1c(=O)n(CC(=O)OCC#N)c(=O)n2Cc1ccccc1  6.93%
28. CCSc1nnc(NC(=O)[C@@H](NC(=O)c2ccc(C(C)(C)C)cc2)C(C)C)s1  6.78%
29. CN(CC(=O)OCC(=O)NCc1ccccc1)S(=O)(=O)c1ccc(F)cc1  5.48%
30. CNC(=S)NNc1nncc2ccccc12  4.69%
31. CCCCN(C(=O)c1cccc(S(=O)(=O)N(C)c2ccc(C)cc2)c1)c1c(N)n(CCCC)c(=O)[nH]c1=O  4.53%
32. O=C(CN1CCOc2ccccc21)NCc1ccccc1  4.24%
33. CCCNC(=O)COC(=O)c1ccccc1OCc1ccc(Cl)cc1  3.69%
34. COc1cc([N+](=O)[O-])ccc1N/C=C/C(=O)c1cccs1  2.88%
35. Cn1nc(C(F)(F)F)c(/C=N/OC(=O)c2ccccc2Cl)c1SCc1ccc(Cl)cc1  2.65%
36. COc1ccc(OC)c(N2C(=O)C(Cl)=C(N3CCOCC3)C2=O)c1  2.59%
37. O=C(C1=NN(c2ccccc2)C2C(=O)N(c3ccccc3)C(=O)C12)c1ccccc1 (centres unmarked)  2.16%
38. O=C1CC(c2ccccc2)Sc2nc3ccccc3n21 (centres unmarked)  0.594%
39. CN1CCN(CP(=O)(N2CCOCC2)N2CCOCC2)CC1  0.225%
40. COc1ccc2nc(SCC(=O)NCCc3ccccc3)[nH]c2c1  -1.17%
41. COC(=O)C1CCN(Cc2ccc(C)cc2)CC1  -3.74%
42. CCCCN(C(=O)c1cccs1)C1CCS(=O)(=O)C1 (centres unmarked)  -6.95%
43. CCN(CC)CCNC(=O)c1c(O)c2ccccc2n(Cc2ccccc2)c1=O.Cl  -9.37%
44. CC(=O)c1ccc(OCC(O)CN2CCc3ccccc3C2)cc1.Cl (centres unmarked)  -17.3%
